Measurements as given in paper PMC8121548.
These are yes or no findings as the source states them, for the method shown. Binding seen in cells or lysates may run through a third protein. Some results given as binding are weak or reduced against the parent protein; the word gives no strength.

Sequences of proteins named here, by UniProt entry; tags and fusion partners are left off.
UniProt Q07652: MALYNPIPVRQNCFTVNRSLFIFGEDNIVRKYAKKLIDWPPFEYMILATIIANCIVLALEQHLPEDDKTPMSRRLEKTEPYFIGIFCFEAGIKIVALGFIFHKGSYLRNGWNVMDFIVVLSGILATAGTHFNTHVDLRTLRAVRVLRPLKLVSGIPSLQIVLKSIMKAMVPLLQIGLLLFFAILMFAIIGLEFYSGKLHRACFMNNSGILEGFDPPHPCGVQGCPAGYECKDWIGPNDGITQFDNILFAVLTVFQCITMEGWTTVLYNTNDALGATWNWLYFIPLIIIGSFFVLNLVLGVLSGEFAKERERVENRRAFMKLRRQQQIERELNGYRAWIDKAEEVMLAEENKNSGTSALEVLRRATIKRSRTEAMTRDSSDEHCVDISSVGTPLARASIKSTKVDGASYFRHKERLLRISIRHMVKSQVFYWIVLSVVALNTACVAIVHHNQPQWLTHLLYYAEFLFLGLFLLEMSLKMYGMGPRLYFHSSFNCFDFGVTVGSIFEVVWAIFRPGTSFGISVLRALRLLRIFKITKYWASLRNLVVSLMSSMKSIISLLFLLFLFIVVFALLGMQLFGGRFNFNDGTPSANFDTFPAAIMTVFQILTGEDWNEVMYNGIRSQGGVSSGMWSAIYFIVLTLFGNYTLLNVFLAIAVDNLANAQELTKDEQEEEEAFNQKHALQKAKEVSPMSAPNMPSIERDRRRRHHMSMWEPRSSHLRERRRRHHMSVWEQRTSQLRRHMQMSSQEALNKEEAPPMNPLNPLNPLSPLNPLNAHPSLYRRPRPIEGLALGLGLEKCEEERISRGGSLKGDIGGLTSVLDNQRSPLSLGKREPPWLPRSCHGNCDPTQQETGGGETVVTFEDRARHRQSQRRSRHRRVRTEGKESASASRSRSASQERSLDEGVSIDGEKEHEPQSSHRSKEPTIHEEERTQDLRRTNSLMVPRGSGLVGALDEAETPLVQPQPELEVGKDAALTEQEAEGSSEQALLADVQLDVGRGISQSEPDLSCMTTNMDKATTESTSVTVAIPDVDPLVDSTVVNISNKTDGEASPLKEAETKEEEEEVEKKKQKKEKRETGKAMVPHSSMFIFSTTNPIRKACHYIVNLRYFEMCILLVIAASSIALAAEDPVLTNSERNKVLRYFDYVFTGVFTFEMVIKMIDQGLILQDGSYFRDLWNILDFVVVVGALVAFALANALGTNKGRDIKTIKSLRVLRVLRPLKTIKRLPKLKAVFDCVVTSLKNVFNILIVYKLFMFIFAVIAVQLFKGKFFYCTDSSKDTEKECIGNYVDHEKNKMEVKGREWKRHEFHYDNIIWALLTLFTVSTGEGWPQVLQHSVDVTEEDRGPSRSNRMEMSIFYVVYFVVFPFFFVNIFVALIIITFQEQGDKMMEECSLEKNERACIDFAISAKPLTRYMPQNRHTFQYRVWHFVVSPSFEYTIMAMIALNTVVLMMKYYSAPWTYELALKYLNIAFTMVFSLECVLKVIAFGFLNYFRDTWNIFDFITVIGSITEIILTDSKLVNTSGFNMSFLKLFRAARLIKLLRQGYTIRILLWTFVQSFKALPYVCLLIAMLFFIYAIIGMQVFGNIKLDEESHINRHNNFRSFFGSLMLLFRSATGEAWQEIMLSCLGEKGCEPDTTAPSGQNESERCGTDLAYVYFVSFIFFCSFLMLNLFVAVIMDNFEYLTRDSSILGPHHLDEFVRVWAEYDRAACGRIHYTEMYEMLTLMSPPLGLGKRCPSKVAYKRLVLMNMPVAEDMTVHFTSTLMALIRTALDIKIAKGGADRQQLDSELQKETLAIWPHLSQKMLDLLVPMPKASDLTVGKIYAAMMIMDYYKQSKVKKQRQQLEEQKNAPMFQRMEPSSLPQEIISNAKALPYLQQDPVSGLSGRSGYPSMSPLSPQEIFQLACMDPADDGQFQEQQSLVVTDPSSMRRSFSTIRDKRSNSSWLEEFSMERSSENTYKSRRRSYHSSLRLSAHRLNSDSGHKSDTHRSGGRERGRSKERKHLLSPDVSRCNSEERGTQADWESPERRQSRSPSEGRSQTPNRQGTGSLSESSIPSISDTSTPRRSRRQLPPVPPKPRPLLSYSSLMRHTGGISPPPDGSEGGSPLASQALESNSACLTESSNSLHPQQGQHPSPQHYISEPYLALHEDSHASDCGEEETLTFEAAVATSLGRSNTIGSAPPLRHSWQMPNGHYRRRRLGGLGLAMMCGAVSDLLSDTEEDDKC
UniProt Q6WVG3: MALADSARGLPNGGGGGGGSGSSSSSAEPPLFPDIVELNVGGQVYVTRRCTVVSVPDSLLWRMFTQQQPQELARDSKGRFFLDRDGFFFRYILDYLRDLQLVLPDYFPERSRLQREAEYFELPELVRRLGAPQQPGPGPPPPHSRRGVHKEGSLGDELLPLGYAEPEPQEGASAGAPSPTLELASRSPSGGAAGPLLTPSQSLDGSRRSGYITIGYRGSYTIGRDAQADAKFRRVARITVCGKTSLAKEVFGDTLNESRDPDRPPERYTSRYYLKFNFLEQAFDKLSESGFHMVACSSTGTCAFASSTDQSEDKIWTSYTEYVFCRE

Assays:
[1] = target: rat Cav2.3 (pore forming α-subunit) (rat) (UniProt Q07652); assay: co-IP; total membrane and plasma membrane extracts of HEK293T cells transfected with rat Cav2.3, β3, α2δ1 and Flag-KCTD, solubilized in 0.5% Nonidet P-40; immunoprecipitation with anti-Cav2.3 (ACC-006), 16 hr at 4°C; blot with anti-KCTD8 or anti-Flag
[2] = target: C-terminally Flag-tagged Cav2.3 (UniProt Q07652); assay: co-IP; total cell lysates of transfected HEK293T cells in NETN buffer (100 mM NaCl, 1 mM EDTA, 0.5% Nonidet P-40, 20 mM Tris-HCl, pH 7.4); immunoprecipitation with anti-Cav2.3 (ACC-006), 16 hr at 4°C, protein-A/G agarose; blot with anti-Flag

binding [1]	binding [2]	Substance
binds	binds	N-terminally Flag-tagged KCTD8 (from UniProt Q50H33-1 1-476)
	no binding	N-terminally Flag-tagged KCTD12 (from UniProt Q6WVG3 1-327)
binds	binds	N-terminally Flag-tagged KCTD12b (from UniProt Q8C7J6 1-292)
